Data taken from the supplement of paper PMC7826260.
The other results are listed elsewhere or left out. Viral Rep nickase domains cut single-stranded DNA in vitro for 1 h at 37 °C with 3 µM enzyme; only the middle of the 90-letter strands is printed. A value is the log2 ratio of uncut reads to the pool without enzyme; more negative means more cut, near 0 not cut, and no call is made. Because reads are shares of a total, they shift together, so uncut sequences can rise above 0 when many others are cut.

System: T1, Rep nickase domain of tomato golden mosaic virus
T1 sequence (residues 1-124, tag not shown): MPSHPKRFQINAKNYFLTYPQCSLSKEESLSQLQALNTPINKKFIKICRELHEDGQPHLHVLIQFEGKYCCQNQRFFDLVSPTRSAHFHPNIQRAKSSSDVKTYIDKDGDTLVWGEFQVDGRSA
Assay: uncleaved DNA left, log2 of reads against the no-enzyme library (log2 ratio); higher = less cleavage (more negative = more Rep cleavage of the k-mer); sequences stand for … in CTCGTCCG…ACCGGAGA
Experimental: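 A pool of 90-nt single-stranded DNAs with seven random bases just before the constant AC of the nick site (name = the seven bases) was cut by 3 µM recombinant His6-SUMO-tagged Rep nickase domain (300 nM DNA, 50 mM HEPES pH 8.0, 50 mM NaCl, 1 mM MnCl2, 1 h, 37 °C, three replicates). Uncut DNA was amplified and sequenced.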

Sequence | uncleaved DNA left (log2)
AGAATAT | 0.0286
CCCAGTC | -0.0614
AGCTCCG | -0.0943
ACATCAG | 0.00229
GAACGCG | 0.0224
GGCCACA | 0.044
TCAATGT | 0.127
TAATTGC | -0.217
GTTGAAT | 0.0585
GTCATTC | 0.0486
AACCAAC | -0.156
ACCGACG | 0.0392
CGTCCAG | -0.0768
CAGTAAT | -0.0985
GACGCGC | -0.0988
CGTTAAC | -0.119
ACTTTAG | 0.0822
TTTCATG | -0.222
TCGGTCC | -0.039
CAAAGAG | 0.161

Sequence | uncleaved DNA left (log2)
GATGACG | 0.0426
GCTCGTC | -0.0386
ACGCTCT | -0.0116
CGTCACC | -0.132
CGAAGCA | 0.155
AGCTGTA | -0.14
CGGTTGG | -0.132
GCGTCAG | 0.104
TGCCGGT | -0.2
AGTCTAT | -0.228
CGCACGT | -0.095
CGACGGT | -0.0341
TAGCCGC | -0.302
AAGCAGT | -0.0593
TTCGGTA | 0.0859
CCTCCTA | -0.11
TAGGGTC | 0.0739
TGGTTAT | -0.00108
CGGGTAC | 0.0412
TTGGTCT | 0.0438
